No constants are given. Whether binding was seen depends on the method and setting. In cells and extracts the contact can be indirect. Some entries that bind do so weakly or less than the wild type.
Assays:
Test in all cases: pull-down; GST pull-down: Venus- or NV-tagged and GST-tagged plasmids co-transfected 1:1 in 293T cells for 2 d; 400 ug of total soluble protein with glutathione sepharose beads overnight at 4°C; Western blot (anti-GST, anti-N-GFP or anti-PD-L1); cells under normal culture conditions or EBSS-4 h
GST-AKT1 (human) = GST-AKT1 (human) (UniProt P31749)
GST-PD-L1 (human) = GST-PD-L1 (human) (UniProt Q9NZQ7)
GST-AKT2 = GST-AKT2 (UniProt P31751)

Amino acid sequences for entries named in this document (tags omitted). A change or cut given only in a name is not applied to a line headed by its entry. Residues count along the entry.
UniProt P31749: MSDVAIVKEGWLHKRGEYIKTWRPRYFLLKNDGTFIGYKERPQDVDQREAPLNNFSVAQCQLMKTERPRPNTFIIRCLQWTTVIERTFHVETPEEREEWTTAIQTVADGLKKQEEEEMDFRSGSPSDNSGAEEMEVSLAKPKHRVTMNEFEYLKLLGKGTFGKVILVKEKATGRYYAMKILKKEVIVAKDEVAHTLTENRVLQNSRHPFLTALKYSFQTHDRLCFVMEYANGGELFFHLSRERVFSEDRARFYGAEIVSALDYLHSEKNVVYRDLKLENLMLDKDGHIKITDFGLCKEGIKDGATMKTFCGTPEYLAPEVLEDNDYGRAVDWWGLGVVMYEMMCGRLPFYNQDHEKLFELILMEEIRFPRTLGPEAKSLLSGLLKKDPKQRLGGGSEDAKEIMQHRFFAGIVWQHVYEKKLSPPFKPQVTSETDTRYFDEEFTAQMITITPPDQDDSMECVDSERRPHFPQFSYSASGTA
UniProt Q9NZQ7, residues 19-290: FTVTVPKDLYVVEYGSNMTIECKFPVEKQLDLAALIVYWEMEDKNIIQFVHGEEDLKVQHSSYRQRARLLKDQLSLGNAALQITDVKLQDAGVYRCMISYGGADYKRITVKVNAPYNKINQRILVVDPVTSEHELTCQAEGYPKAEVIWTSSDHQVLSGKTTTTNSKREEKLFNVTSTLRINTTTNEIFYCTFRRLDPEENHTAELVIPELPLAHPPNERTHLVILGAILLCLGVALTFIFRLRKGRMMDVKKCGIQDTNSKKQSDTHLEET
UniProt P31751: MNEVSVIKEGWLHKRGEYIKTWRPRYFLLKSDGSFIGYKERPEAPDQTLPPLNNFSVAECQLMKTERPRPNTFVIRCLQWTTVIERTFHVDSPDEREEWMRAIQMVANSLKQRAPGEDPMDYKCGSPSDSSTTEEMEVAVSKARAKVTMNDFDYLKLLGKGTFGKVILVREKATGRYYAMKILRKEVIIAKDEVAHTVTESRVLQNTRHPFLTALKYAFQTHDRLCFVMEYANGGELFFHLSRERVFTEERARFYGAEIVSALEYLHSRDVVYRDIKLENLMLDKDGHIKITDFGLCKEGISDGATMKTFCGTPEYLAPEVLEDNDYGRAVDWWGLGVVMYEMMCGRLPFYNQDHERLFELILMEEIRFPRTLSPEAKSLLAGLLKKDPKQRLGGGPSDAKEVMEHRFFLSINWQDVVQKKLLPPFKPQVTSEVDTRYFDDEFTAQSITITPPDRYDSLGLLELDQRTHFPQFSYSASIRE

Substance: NV-PD-L1 FL (full length 1-290 aa) (from UniProt Q9NZQ7 19-290)
- binding (GST-AKT1 (human)): binds

Substance: Venus-Akt1 FL (1-480 aa) (from UniProt P31749 1-480)
- binding (GST-PD-L1 (human)): binds

Substance: Venus-Akt1 T1-111 (from UniProt P31749 1-111) (domain or fragment)
- binding (GST-PD-L1 (human)): no binding

Substance: Venus-Akt1-K14R (from UniProt P31749 1-480)
- binding (GST-PD-L1 (human)): binds

Substance: Venus-Akt1-Y176A (from UniProt P31749 1-480)
- binding (GST-PD-L1 (human)): binds

Substance: Venus-PD-L1 FL1-290 (from UniProt Q9NZQ7 19-290)
- binding (GST-AKT2): binds
- binding (GST-AKT1 (human)): binds

Substance: Venus-PD-L1 T19-290 (from UniProt Q9NZQ7 19-290) (domain or fragment)
- binding (GST-AKT1 (human)): binds
